# Some of the results follow. The full chains were built here from the parent and the listed change. Inactive controls read about 0.05.
# B1: TEV protease; numbered along this chain (parent)
# chain: MGESLFKGPRDYNPISSSICHLTNESDGHTTSLYGIGFGPFIITNKHLFRRNNGTLVVQSLHGVFKVKDTTTLQQHLVDGRDMIIIRMPKDFPPFPQKLKFREPQREERICLVTTNFQTKSMSSMVSDTSCTFPSGDGIFWKHWIQTKDGQCGSPLVSTRDGFIVGIHSASNFTNTNNYFTSVPKNFMELLTNQEAQQWVSGWRLNADSVLWGGHKVFMVKPEEPFQPVKEATQL
# Variants of: B1
# Experiment: raw area under fraction-flipped curve 0-4 h after induction (AUC4h, not background-subtracted), DNA-recorder readout of cleavage of the substrate (dimensionless); higher = more cleavage of the substrate by the protease variant
# Conditions: temperature: 34 °C; time window: 0-4 h after rhamnose induction
# Description: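 In vivo DNA recorder in E. coli TOP10(DE3) ΔrhaA at 34 °C. Each TEVp single-site mutant (parent TEVp 0) is paired with a single-site variant of the 7-mer TEVs (canonical ENLYFQ|S). The substrate sits between flexible linkers in a Bxb1-sfGFP-TEVs-SsrA fusion, so cleavage stabilises Bxb1 and speeds flipping of a recombination array, read by NGS. The value is the raw area under the fraction-flipped curve over 0-4 h after rhamnose induction (AUC4h), with ≥20 reads per time point. It is not background-subtracted; inactive controls average about 0.047.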
# 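Note: Bxb1 expression induced with 0.2% (w/v) L-rhamnose at OD600 near 0.5, cultures sampled hourly, flipped fraction per protease–substrate barcode pair counted by paired-end Illumina sequencing.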
Variant,area with substrate EALYFQS,area with substrate ECLYFQS,area with substrate EELYFQS,area with substrate EGLYFQS,area with substrate EHLYFQS,area with substrate EILYFQS,area with substrate EKLYFQS,area with substrate EMLYFQS,area with substrate EPLYFQS,area with substrate EQLYFQS,area with substrate ERLYFQS,area with substrate ESLYFQS,area with substrate EVLYFQS,area with substrate EWLYFQS,area with substrate EYLYFQS,area with substrate ELLYFQS,area with substrate ETLYFQS,area with substrate EDLYFQS,area with substrate EFLYFQS
MGESLFKGPRDYNPISSSICHLTNESDGHTTSLYGIGFGPFIITNKHLFRRNNGTLVVQSLHGVFKVKDTTTLQQHLVDGRDMYIIRMPKDFPPFPQKLKFREPQREERICLVTTNFQTKSMSSMVSDTSCTFPSGDGIFWKHWIQTKDGQCGSPLVSTRDGFIVGIHSASNFTNTNNYFTSVPKNFMELLTNQEAQQWVSGWRLNADSVLWGGHKVFMVKPEEPFQPVKEATQL [I84Y],0.0639,0.058,0.0542,0.0617,0.0513,0.047,0.0482,0.0513,0.0578,0.0421,0.0567,0.0575,0.0441,0.0565,0.0512,,,,
MGESLFKGPRDYNPISSSICHLTNESDGHTTSLYGIGFGPFIITNKHLFRRNNGTLVVQSLHGVFKVKDTTTLQQHLVDGRDMLIIRMPKDFPPFPQKLKFREPQREERICLVTTNFQTKSMSSMVSDTSCTFPSGDGIFWKHWIQTKDGQCGSPLVSTRDGFIVGIHSASNFTNTNNYFTSVPKNFMELLTNQEAQQWVSGWRLNADSVLWGGHKVFMVKPEEPFQPVKEATQL [I84L],0.0866,0.079,,0.064,0.114,,,0.142,0.0936,,0.0848,0.0786,0.0991,0.0696,0.0893,0.114,0.182,,
MGESLFKGPRDYNPISSSICHLTNESDGHTTSLYGIGFGPFIITNKHLFRRNNGTLVVQSLHGVFKVKDTTTLQQHLVDGRDMIIIRMPKDWPPFPQKLKFREPQREERICLVTTNFQTKSMSSMVSDTSCTFPSGDGIFWKHWIQTKDGQCGSPLVSTRDGFIVGIHSASNFTNTNNYFTSVPKNFMELLTNQEAQQWVSGWRLNADSVLWGGHKVFMVKPEEPFQPVKEATQL [F92W],0.119,0.0829,,,,0.1,,0.131,,0.132,,0.107,0.118,,0.112,,,0.126,
MGESLFKGPRDYNPISSSICHLTNESDGHTTSLYGIGFGPFIITNKHLFRRNNGTLVVQSLHGVFKVKDTTTLQQHLVDGRDMIIIRMPKDFPPQPQKLKFREPQREERICLVTTNFQTKSMSSMVSDTSCTFPSGDGIFWKHWIQTKDGQCGSPLVSTRDGFIVGIHSASNFTNTNNYFTSVPKNFMELLTNQEAQQWVSGWRLNADSVLWGGHKVFMVKPEEPFQPVKEATQL [F95Q],0.0783,0.0776,,0.0853,0.0797,,,,,,,0.083,,,,,0.105,,
MGESLFKGPRDYNPISSSICHLTNESDGHTTSLYGIGFGPFIITNKHLFRRNNGTLVVQSLHGVFKVKDTTTLQQHLVDGRDMIIIRMPKDFPPPPQKLKFREPQREERICLVTTNFQTKSMSSMVSDTSCTFPSGDGIFWKHWIQTKDGQCGSPLVSTRDGFIVGIHSASNFTNTNNYFTSVPKNFMELLTNQEAQQWVSGWRLNADSVLWGGHKVFMVKPEEPFQPVKEATQL [F95P],0.0591,0.0487,,0.0565,,0.0471,0.0393,0.0728,,0.0649,,0.0494,,0.0609,,0.052,,,0.0535
MGESLFKGPRDYNPISSSICHLTNESDGHTTSLYGIGFGPFIITNKHLFRRNNGTLVVQSLHGVFKVKDTTTLQQHLVDGRDMIIIEMPKDFPPFPQKLKFREPQREERICLVTTNFQTKSMSSMVSDTSCTFPSGDGIFWKHWIQTKDGQCGSPLVSTRDGFIVGIHSASNFTNTNNYFTSVPKNFMELLTNQEAQQWVSGWRLNADSVLWGGHKVFMVKPEEPFQPVKEATQL [R87E],0.114,0.099,0.12,,,,0.115,,,,0.0932,0.103,0.0738,,0.116,,,0.09,
MGESLFKGPRDYNPISSSICHLTNESDGHTTSLYGIGFGPFIITNKHLFRRNNGTLVVQSLHGVFKVKDTTTLQQHLVDGRDMIIILMPKDFPPFPQKLKFREPQREERICLVTTNFQTKSMSSMVSDTSCTFPSGDGIFWKHWIQTKDGQCGSPLVSTRDGFIVGIHSASNFTNTNNYFTSVPKNFMELLTNQEAQQWVSGWRLNADSVLWGGHKVFMVKPEEPFQPVKEATQL [R87L],0.1,0.0567,,0.052,,0.081,,,,0.0987,,0.0854,,,,0.102,,,
MGESLFKGPRDYNPISSSICHLTNESDGHTTSLYGIGFGPFIITNKHLFRRNNGTLVVQSLHGVFKVKDTTTLQQHLVDGRDMIIIMMPKDFPPFPQKLKFREPQREERICLVTTNFQTKSMSSMVSDTSCTFPSGDGIFWKHWIQTKDGQCGSPLVSTRDGFIVGIHSASNFTNTNNYFTSVPKNFMELLTNQEAQQWVSGWRLNADSVLWGGHKVFMVKPEEPFQPVKEATQL [R87M],0.122,,,,0.114,,,,0.135,,0.107,,,0.139,,,0.0928,,0.107
MGESLFKGPRDYNPISSSICHLTNESDGHTTSLYGIGFGPFIITNKHLFRRNNGTLVVQSLHGVFKVKDTTTLQQHLVDGRDMIIIRMPTDFPPFPQKLKFREPQREERICLVTTNFQTKSMSSMVSDTSCTFPSGDGIFWKHWIQTKDGQCGSPLVSTRDGFIVGIHSASNFTNTNNYFTSVPKNFMELLTNQEAQQWVSGWRLNADSVLWGGHKVFMVKPEEPFQPVKEATQL [K90T],0.122,0.099,0.111,0.0873,0.142,0.0825,0.104,,0.135,0.121,,0.106,0.105,0.117,0.127,,0.119,0.12,
MGESLFKGPRDYNPISSSICHLTNESDGHTTSLYGIGFGPFIITNKHLFRRNNGTLVVQSLHGVFKVKDTTTLQQHLVDGRDMIIHRMPKDFPPFPQKLKFREPQREERICLVTTNFQTKSMSSMVSDTSCTFPSGDGIFWKHWIQTKDGQCGSPLVSTRDGFIVGIHSASNFTNTNNYFTSVPKNFMELLTNQEAQQWVSGWRLNADSVLWGGHKVFMVKPEEPFQPVKEATQL [I86H],0.0514,0.0282,,0.0482,,0.0562,0.0309,,,0.0503,,,0.042,0.0573,,0.0402,,,
MGESLFKGPRDYNPISSSICHLTNESDGHTTSLYGIGFGPFIITNKHLFRRNNGTLVVQSLHGVFKVKDTTTLQQHLVDGRDMIEIRMPKDFPPFPQKLKFREPQREERICLVTTNFQTKSMSSMVSDTSCTFPSGDGIFWKHWIQTKDGQCGSPLVSTRDGFIVGIHSASNFTNTNNYFTSVPKNFMELLTNQEAQQWVSGWRLNADSVLWGGHKVFMVKPEEPFQPVKEATQL [I85E],0.0424,0.0501,,,0.042,0.0511,0.0347,0.065,,0.031,0.0494,,,,,,,,0.0523
MGESLFKGPRDYNPISSSICHLTNESDGHTTSLYGIGFGPFIITNKHLFRRNNGTLVVQSLHGVFKVKDTTTLQQHLVDGRDMINIRMPKDFPPFPQKLKFREPQREERICLVTTNFQTKSMSSMVSDTSCTFPSGDGIFWKHWIQTKDGQCGSPLVSTRDGFIVGIHSASNFTNTNNYFTSVPKNFMELLTNQEAQQWVSGWRLNADSVLWGGHKVFMVKPEEPFQPVKEATQL [I85N],0.0545,0.0656,,0.0679,0.0484,0.0507,,0.0612,0.0493,0.0568,0.0669,0.0424,,,,0.0734,,0.0513,0.056
MGESLFKGPRDYNPISSSICHLTNESDGHTTSLYGIGFGPFIITNKHLFRRNNGTLVVQSLHGVFKVKDTTTLQQHLVDGRDMIIIRMPKDFPCFPQKLKFREPQREERICLVTTNFQTKSMSSMVSDTSCTFPSGDGIFWKHWIQTKDGQCGSPLVSTRDGFIVGIHSASNFTNTNNYFTSVPKNFMELLTNQEAQQWVSGWRLNADSVLWGGHKVFMVKPEEPFQPVKEATQL [P94C],0.161,0.144,,,0.15,0.0915,,,,0.129,,0.0948,,,,,0.159,,
MGESLFKGPRDYNPISSSICHLTNESDGHTTSLYGIGFGPFIITNKHLFRRNNGTLVVQSLHGVFKVKDTTTLQQHLVDGRDMIIIRMPKDFPLFPQKLKFREPQREERICLVTTNFQTKSMSSMVSDTSCTFPSGDGIFWKHWIQTKDGQCGSPLVSTRDGFIVGIHSASNFTNTNNYFTSVPKNFMELLTNQEAQQWVSGWRLNADSVLWGGHKVFMVKPEEPFQPVKEATQL [P94L],0.135,,,0.0955,,0.119,,,,,0.134,,0.144,,,,,,
MGESLFKGPRDYNPISSSICHLTNESDGHTTSLYGIGFGPFIITNKHLFRRNNGTLVVQSLHGVFKVKDTTTLQQHLVDGRDMIIIRMPKDFEPFPQKLKFREPQREERICLVTTNFQTKSMSSMVSDTSCTFPSGDGIFWKHWIQTKDGQCGSPLVSTRDGFIVGIHSASNFTNTNNYFTSVPKNFMELLTNQEAQQWVSGWRLNADSVLWGGHKVFMVKPEEPFQPVKEATQL [P93E],0.143,0.112,0.147,0.049,0.194,,,0.144,,,,0.132,0.124,0.146,0.125,,,,0.112
MGESLFKGPRDYNPISSSICHLTNESDGHTTSLYGIGFGPFIITNKHLFRRNNGTLVVQSLHGVFKVKDTTTLQQHLVDGRDMIIIRMPKDFGPFPQKLKFREPQREERICLVTTNFQTKSMSSMVSDTSCTFPSGDGIFWKHWIQTKDGQCGSPLVSTRDGFIVGIHSASNFTNTNNYFTSVPKNFMELLTNQEAQQWVSGWRLNADSVLWGGHKVFMVKPEEPFQPVKEATQL [P93G],0.119,0.0971,,,0.0871,,0.0981,0.131,,,0.097,0.0966,0.0907,,,,,,0.119
MGESLFKGPRDYNPISSSICHLTNESDGHTTSLYGIGFGPFIITNKHLFRRNNGTLVVQSLHGVFKVKDTTTLQQHLVDGRDMIIIRMDKDFPPFPQKLKFREPQREERICLVTTNFQTKSMSSMVSDTSCTFPSGDGIFWKHWIQTKDGQCGSPLVSTRDGFIVGIHSASNFTNTNNYFTSVPKNFMELLTNQEAQQWVSGWRLNADSVLWGGHKVFMVKPEEPFQPVKEATQL [P89D],0.127,0.0943,0.138,,,,,,,,,0.0967,0.0814,,,0.0794,,,
MGESLFKGPRDYNPISSSICHLTNESDGHTTSLYGIGFGPFIITNKHLFRRNNGTLVVQSLHGVFKVKDTTTLQQHLVDGRDMIIIRMGKDFPPFPQKLKFREPQREERICLVTTNFQTKSMSSMVSDTSCTFPSGDGIFWKHWIQTKDGQCGSPLVSTRDGFIVGIHSASNFTNTNNYFTSVPKNFMELLTNQEAQQWVSGWRLNADSVLWGGHKVFMVKPEEPFQPVKEATQL [P89G],0.102,0.101,,,,,0.077,,0.117,,0.0729,,0.101,0.0563,,,,,
MGESLFKGPRDYNPISSSICHLTNESDGHTTSLYGIGFGPFIITNKHLFRRNNGTLVVQSLHGVFKVKDTTTLQQHLVDGRDMIIIRMPKGFPPFPQKLKFREPQREERICLVTTNFQTKSMSSMVSDTSCTFPSGDGIFWKHWIQTKDGQCGSPLVSTRDGFIVGIHSASNFTNTNNYFTSVPKNFMELLTNQEAQQWVSGWRLNADSVLWGGHKVFMVKPEEPFQPVKEATQL [D91G],0.11,0.116,0.208,,0.099,0.122,0.101,,0,0.112,0.107,0.1,0.0862,,0.107,0.0827,,,0.119
MGESLFKGPRDYNPISSSICHLTNESDGHTTSLYGIGFGPFIITNKHLFRRNNGTLVVQSLHGVFKVKDTTTLQQHLVDGRDMIIIRMPKYFPPFPQKLKFREPQREERICLVTTNFQTKSMSSMVSDTSCTFPSGDGIFWKHWIQTKDGQCGSPLVSTRDGFIVGIHSASNFTNTNNYFTSVPKNFMELLTNQEAQQWVSGWRLNADSVLWGGHKVFMVKPEEPFQPVKEATQL [D91Y],0.135,0.0836,0.098,,0.0921,0.0677,,0.0981,0.093,0.101,0.0949,0.0846,0.0912,0.088,0.0954,,,,

# From the supplement of paper PMC12217912
